In publication PMC4336329 (PLoS ONE, 2015):
Screen size: about 310,000 compounds; about 14,000 (4.5%) showed an effect of 50% or more. The effect is printed as a negative number. The list shows a part of the results.

Biological target: human ether-à-go-go-related gene (hERG) potassium channel (human, UniProt Q12809)
Experiment: primary screen, population patch clamp on CHO cells stably expressing hERG
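Note: peak tail current of the secondary pulse compared with the same well before compound.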

human ether-à-go-go-related gene (hERG) potassium channel, sequence (Q12809 whole entry, looked up): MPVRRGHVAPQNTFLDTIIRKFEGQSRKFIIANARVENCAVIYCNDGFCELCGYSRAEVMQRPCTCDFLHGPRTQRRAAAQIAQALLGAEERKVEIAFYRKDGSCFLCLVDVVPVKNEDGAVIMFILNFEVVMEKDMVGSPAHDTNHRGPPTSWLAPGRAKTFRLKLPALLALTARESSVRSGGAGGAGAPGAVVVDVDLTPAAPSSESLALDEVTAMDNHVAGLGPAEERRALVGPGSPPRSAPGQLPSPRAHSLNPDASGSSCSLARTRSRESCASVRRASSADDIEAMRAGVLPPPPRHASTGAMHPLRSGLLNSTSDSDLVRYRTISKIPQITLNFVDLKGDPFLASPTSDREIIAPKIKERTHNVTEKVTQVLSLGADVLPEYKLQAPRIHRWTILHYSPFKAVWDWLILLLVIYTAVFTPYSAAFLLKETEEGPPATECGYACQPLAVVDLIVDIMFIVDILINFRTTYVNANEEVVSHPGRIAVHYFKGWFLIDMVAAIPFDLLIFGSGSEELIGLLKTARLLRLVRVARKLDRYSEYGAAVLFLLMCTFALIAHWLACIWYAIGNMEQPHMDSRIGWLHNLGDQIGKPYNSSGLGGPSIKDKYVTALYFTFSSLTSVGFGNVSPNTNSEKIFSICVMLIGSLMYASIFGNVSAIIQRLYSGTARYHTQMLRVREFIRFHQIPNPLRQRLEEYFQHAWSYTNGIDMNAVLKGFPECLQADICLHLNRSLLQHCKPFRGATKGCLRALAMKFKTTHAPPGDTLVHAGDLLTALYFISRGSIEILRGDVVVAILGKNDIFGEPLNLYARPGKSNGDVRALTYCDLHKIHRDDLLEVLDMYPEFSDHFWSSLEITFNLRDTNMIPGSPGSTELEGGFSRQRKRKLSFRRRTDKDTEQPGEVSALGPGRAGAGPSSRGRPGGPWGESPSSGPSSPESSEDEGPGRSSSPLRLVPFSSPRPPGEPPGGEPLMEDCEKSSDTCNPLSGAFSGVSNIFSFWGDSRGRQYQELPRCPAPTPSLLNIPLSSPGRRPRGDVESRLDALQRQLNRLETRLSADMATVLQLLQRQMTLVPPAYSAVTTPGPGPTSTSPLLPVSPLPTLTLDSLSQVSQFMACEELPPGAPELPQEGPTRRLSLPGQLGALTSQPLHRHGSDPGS

| Structure (SMILES) | hERG current change (%, negative = inhibition) at 10uM |
| --- | --- |
| CCN(CCCNS(=O)(=O)c1ccc2c(c1)oc(=O)n2C)c1cccc(C)c1 | -4.37% |
| COc1ccc(S(=O)(=O)N2CCC(NC(=O)Nc3ccc(C)cc3)CC2)cc1 | -0.961% |
| CC(c1nccs1)N(C)c1nc2nonc2nc1NC1CC1 (stereo not shown) | 1.23% |
| COc1ccc(N2CC(NC(=O)N3CCc4ccccc43)CC2=O)cc1OC (stereo not shown) | -12.8% |
| Cc1cc(C)c2nc(SCC(=O)NNC(=O)c3ccco3)c(C)cc2c1 | 27.2% |
| CC(=O)Nc1ccc(S(=O)(=O)N(C2=NCC(C)S2)c2ccccc2)cc1 (stereo not shown) | -13.4% |
| CN(c1ccc(OCC(=O)N2CCC(C(N)=O)CC2)cc1)S(=O)(=O)c1cccs1 | 5.46% |
| Nc1ccccc1Nc1cc(-c2ccccc2)nn1-c1cccc(Cl)c1 | 20.3% |
| COc1ccc(/C=C2/SC(=S)N(n3c(C)ccc3C)C2=O)cc1 | 5.23% |
| CC1(C)Cc2nc3scc(NC(=O)c4ccccc4)c3cc2CO1 | -0.679% |
| C=CCOCC(O)CS(=O)(=O)Cc1ccc(Cl)cc1 (stereo not shown) | 4.57% |
| CC1Cc2ccccc2N1C(=O)CSC1=NCCS1 (stereo not shown) | 4% |
| Cc1c(NC(=O)c2ccco2)cccc1C(=O)NN1C(=O)c2ccccc2C1=O | 16.4% |
| Cc1cccc(-c2oc3ccccc3c2-c2ccc3c(c2)OCO3)c1 | 31.3% |
| CC(C)(C)OC(=O)NCCCCC1=CC2=CC(=O)C(C)(OC(=O)c3ccco3)C(=O)C2=CO1 (stereo not shown) | 2.05% |
| Cc1ccc(C(=O)COC(=O)CCN2C(=O)C3C4C=CC(C5CC45)C3C2=O)cc1 (stereo not shown) | -39.9% |
| Cc1onc(-c2ccccc2)c1C(=O)N=C(N)c1ccc(Cl)cc1 | 15.6% |
| CCCc1cnc(N2CCN(C(=O)c3ccc(F)cc3)CC2)nc1 | -43.1% |
| CCC(c1nnnn1Cc1ccc2c(c1)OCO2)N1CCN(c2ccc(F)cc2)CC1 (stereo not shown) | -9.29% |
| CCN(C(=O)CSc1nnc(-c2ccccc2Cl)n1C1CCCC1)C1CCS(=O)(=O)C1 (stereo not shown) | 6.77% |
| O=C1C2C3C=CC(C4CC34)C2C(=O)N1/N=C/c1ccc(-c2cccc([N+](=O)[O-])c2)o1 (stereo not shown) | -14.1% |
| CCC(=O)c1ccc(OCC(=O)N(CC)CC(=O)Nc2ccccc2OC)cc1 | -30.1% |

| Structure (SMILES) | hERG current change (%, negative = inhibition) at 10uM |
| --- | --- |
| Cc1cccc(NC(=O)CCCN2C(=O)c3ccccc3C2=O)n1 | 2.84% |
| CN1CCN(Cc2nc3ccccc3c(=O)n2Cc2nc(-c3ccccc3F)cs2)CC1 | -71% |
| CC(=O)Nc1ccc(NC(=O)Cc2ccc(F)cc2)cc1 | 15.2% |
| C=CCNC(=O)CC(=O)N/N=C/c1cccs1 | -8.58% |
| CCn1ccnc1CN(C)C(=O)C1CCC(=O)N(Cc2cccc(F)c2)C1 (stereo not shown) | -11.9% |
| COc1ccc(-c2csc3nc(C)n(-n4cccc4)c(=O)c23)cc1OC | 2.78% |
| COc1ccccc1N1CCN(C(=O)CSc2nnc(-c3ccoc3C)o2)CC1 | -30.5% |
| CC(=O)N1CCCc2cc(S(=O)(=O)NC(C(=O)NCc3ccc(C)cc3)C(C)C)ccc21 (stereo not shown) | -15.3% |
| Cn1nnnc1SCC(=O)Nc1cc(C(F)(F)F)ccc1N1CCOCC1 | -22.7% |
| COc1ccc(CN2C(=O)CC(C(=O)NCCc3ccc(S(N)(=O)=O)cc3)SC2=Nc2ccccc2)cc1 (stereo not shown) | 28.7% |
| COC(=O)c1c(NC(=O)COC(=O)c2ccccc2O)sc2c1CCCCC2 | 15.4% |
| O=S(CCc1ccncc1)Cc1ccccc1 (stereo not shown) | 5.18% |
| CCOC(=O)Cn1cnc2scc(-c3ccc(C)c(C)c3)c2c1=O | 8.77% |
| Cc1cccc(NC(=O)Cc2noc3ccccc23)c1 | -5.99% |
| O=C(NCC1(O)CCCCC1)C1CCC(=O)N(Cc2cccc(C(F)(F)F)c2)C1 (stereo not shown) | -4.88% |
| CC(C(=O)NCCc1nc2ccccc2[nH]1)n1cc([N+](=O)[O-])cn1 (stereo not shown) | 12.6% |
| COC(=O)Cn1c(=NC(=O)CSCC(=O)NC2CCCCC2)sc2cc(OC)ccc21 | 1.61% |
| O=C1CCC(C(=O)Nc2ccccc2N2CCCC2)=NN1 | -38.9% |
| S=C(Nc1ccc(Cl)cc1Cl)N1CCN(c2ccccn2)CC1 | 17.5% |
| CC(C)C(=O)NC(=S)Nc1ccccc1C(F)(F)F | 10.4% |
| CC(C)OC(=O)c1cc(=O)[nH]c2ccccc12 | 5.48% |
